Test results reported in the RNAGym collection of RNA variant scans (doi:10.1073/pnas.2313332121).
This sample is rich in variants without activity.

B1: TPR 5TU (parent)
chain: GGAUCUUCUCGAUCUAACAAAAAAGACAAAUCUGCCACAAAGCUUGAGAGCAUCUUCGGAUGCAGAGGCGGCAGCCUUCGGUGGCGCGAUAGCGCCAACGUUCUCAACUAUGACACGCAAAACGCGUGCUCCGUUGAAUGGAGUUUAUCAUG

Variants of: B1
Test: polymerase ribozyme fitness, log enrichment relative to wild type (log ratio); higher = more active; in vitro selection for triplet polymerase activity
Procedure, shortened: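 Streptavidin-bead capture of gel-excised extended constructs, followed by RT-PCR, closed a single triplicate in vitro selection round. That round began by annealing PCR-built, transcribed mutant libraries of each subunit of a heterodimeric triplet polymerase ribozyme with a biotinylated primer, the partner subunit and triplets, then incubating them frozen at −7 °C. After Illumina sequencing of inputs and outputs, genotypes needed ≥10 input reads and ≥1 read per output. Fitness is the base-2 logarithm of genotype enrichment over wild-type enrichment, using inverse-variance-weighted replicate averages.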

Variant | polymerase ribozyme fitness (log ratio)
G59U G68U A97G U144A | ≤ -4.2
G62A C69U G92C | -3.74
G59A G86A G143U U151G | ≤ -4.2
G59C C96U U146A | 0.268
A60U U127G | -3.08
G59C A119C | -0.18
A60C A89C C105G | ≤ -4.2
G58C G84A A106G C125G A137C | ≤ -4.2
A60G C76U G86C A97G C108G | ≤ -4.2
U61A C96A G126A C131U | -2.54
A60G U78C C87A A115U U134G A147C | ≤ -4.2
C63U C87G C93U U144C | ≤ -4.2
A64C C96U C103G U109A U135G G136U | ≤ -4.2
U61A G84A | -1.38
G58C G94C C96G A115C | ≤ -4.2
G59C U82G G94A C99G U139C G143C | ≤ -4.2
G65A G71A G92U A98U A121U U134G | ≤ -4.2
A64U G67C A73G A122U | ≤ -4.2
U61G G83U G86A C149U | ≤ -4.2
G62A A91G C99A U127G | ≤ -4.2
G59A A60G A64C G70U C79A U82A G83C A91C | ≤ -4.2
G58C G67A | ≤ -4.2
G58U U82A A142G | -0.998
C63G G88A | ≤ -4.2

Variant | polymerase ribozyme fitness (log ratio)
G62A G117A U134C A150G | ≤ -4.2
G59A C75G C96A C99G A121C | ≤ -4.2
G65A U148G | ≤ -4.2
A60G G83A G86A A97C C125G C131G G136A G152U | ≤ -4.2
G59C C85G C95U C116A | -2.38
G58C G94C | -0.872
G58C G67U C79A C85U U102G | ≤ -4.2
A60U A106G | -0.0172
A64G G83U C118A A138G | ≤ -4.2
G59U A60C | -2.96
C63U G86A | -2.99
U61A C96G G117A | -2.2
A64C A66C C69A C85U U127A G128U | ≤ -4.2
U61G C75G G88U A89U U101A G140C | ≤ -4.2
G62U C72G C93A | ≤ -4.2
C63A A64C | -1.46
C63G C87A A107U A142C G143A | ≤ -4.2
U61G G70A C85G C96U | ≤ -4.2
G65A G84A U101C A113C A150C | ≤ -4.2
G65A A97G C99G | -3.75
G62U G124C | -1.42
G58C G59C A73G G94U A110U | ≤ -4.2
G59A C75G G94U C95U | -3.76
G59C G86C C118A | -2.85

Variant | polymerase ribozyme fitness (log ratio)
A64U C79A C93U C99A | ≤ -4.2
A60G G71U G88U C95U C105U C125G | ≤ -4.2
A60C G71A C85A G143C | ≤ -4.2
U61A A64G G140C U144C | ≤ -4.2
C63A G67C C75U C85A | ≤ -4.2
A60U G65U G140A | ≤ -4.2
U61A U77G G84U C149A | ≤ -4.2
U61A G84A U109G | ≤ -4.2
G58C U61G U146G | -3.76
G62C A113U G117A A137C | ≤ -4.2
A60U C85U A91G C132U | ≤ -4.2
C63G C75G G133A | ≤ -4.2
G59C C75U C132G | ≤ -4.2
G59C C76A C96U A106G A119U G140C | ≤ -4.2
U61A C76A G83C C118A | ≤ -4.2
G59C U77G | ≤ -4.2
C63U G81A A91U C99U G100A | ≤ -4.2
G59U U61A A89U C95G C103G C105U C114U G136U | ≤ -4.2
G59A G71C C85U G136A G143C U148G | ≤ -4.2
G58U G100U | ≤ -4.2
G59A A60U C87A G128A | ≤ -4.2
G59U C93A G152U | ≤ -4.2
U61A U134G G143U | ≤ -4.2
U61A C79G U82C C132G | ≤ -4.2

Variant | polymerase ribozyme fitness (log ratio)
U61A G92U | -3.41
U61A A89C U102G U104C | ≤ -4.2
U61A A73U A138U | ≤ -4.2
G59A U90G A97U U135G G136A | ≤ -4.2
G59U A120U A122U | -0.451
G59A U78A G92U C96A C114U A121U | ≤ -4.2
G58U U77A C118U | ≤ -4.2
C63U G68A C85U C114U G124A | ≤ -4.2
G62C C72U C93A | ≤ -4.2
G59A U77A C105A | ≤ -4.2
C63G G65C | ≤ -4.2
A64U A110G | ≤ -4.2
G58C G83A C87G U90A A113U G133A G141A | ≤ -4.2
A64G G70A C85U | ≤ -4.2
G59A U82C U134A | -2.59
A60U G68A A147C | ≤ -4.2
G58C C103U U139C | ≤ -4.2
U61C C76A | -2.59
A60U G68C G84U C99A U145A | ≤ -4.2
A60U C93U U151G | ≤ -4.2
A64G C75G G80C G81U C95U A98U C108U | ≤ -4.2
G62U G68C U90C | ≤ -4.2
C63U A66C U90G G141U | ≤ -4.2
G59U A91U G141A | ≤ -4.2

Variant | polymerase ribozyme fitness (log ratio)
A60U U61A C69G C96U | ≤ -4.2
U61G C95U G100A A150U | ≤ -4.2
G59A G86U A91C C93U A142U U144G | ≤ -4.2
A60C G81C C85U A107C U135G | ≤ -4.2
A64C C69U G84A G136U G141U | ≤ -4.2
U61A U82G G133U U148A | ≤ -4.2
G59C C69A G133C | -1.75
G59C A142C | -0.57
A60U G133C C149G | ≤ -4.2
A64C G70A C75G C131U | ≤ -4.2
A64G C85U C87G C125A | ≤ -4.2
A60G C72U G88U | ≤ -4.2
A60C C69U C93U C114U U135A G140A | ≤ -4.2
A60C U61A C85G C93A A120C | ≤ -4.2
A60C U82G G84A | -1.71
G59A C79U | -3.86
G59C G86U U104G U135G U145A | ≤ -4.2
A64G G68U C76U A91U G92A A150U | ≤ -4.2
U61A A73C | -3.91
G59U G92A A98G A113C U151A | ≤ -4.2
A64G G67U G84U C103A G112C A115U U146C | ≤ -4.2
G62C C76U G84A A120U G140C | ≤ -4.2
U61A G94U A106G | -2.71
U61A A89U | -0.941

Variant | polymerase ribozyme fitness (log ratio)
G62U G67U G71C A98G C99G C105U | ≤ -4.2
A60C G71U U77A C105U | ≤ -4.2
G59A C76G C85G | ≤ -4.2
G58U A64G A91G A113U U135A | ≤ -4.2
G62A C85G C131G | ≤ -4.2
G59C U61G C96G C105U A115U A150U | ≤ -4.2
U61C G86C U135A | ≤ -4.2
G59A A91G G100A C131A U135G | ≤ -4.2
C63A C87A A91G | ≤ -4.2
U61G U148A | ≤ -4.2
G59A G80C G83A C114U C116U | ≤ -4.2
A64U U90C G94U A107C C125A | ≤ -4.2
G59A G94A A150C | ≤ -4.2
A60C C63U U77C G128U A150G G152A | ≤ -4.2
G59C C93U C116U U135G | -3.78
G59C C85A A107U | ≤ -4.2
A60G U134A | -1.8
G58U G68A G94A U111C U127A | ≤ -4.2
A60G C76A A91G C95U A107C | ≤ -4.2
A60G G80C G140A G141U | ≤ -4.2
A64U G88C A142G | ≤ -4.2
A60U C131A | -2.81
U61A G67A C87U A107U | ≤ -4.2
A60U A91U C96A C103A A115U | ≤ -4.2

Variant | polymerase ribozyme fitness (log ratio)
G58U G68A G74A U78A C93A A147C | ≤ -4.2
A60U C87G G141A | ≤ -4.2
U61A G62A U90G C95G C105A C114G U144C G152C | ≤ -4.2
U61A C149G | ≤ -4.2
G59U C96A | -0.703
G59A A66G G68A A91U C108G G140C | ≤ -4.2
A64G A91G | ≤ -4.2
A64G A91U | ≤ -4.2
G59A G84U C93G C95U C108G | ≤ -4.2
C63A U109C | ≤ -4.2
A60G U90G | ≤ -4.2
A64G A91G C123G | ≤ -4.2
G58C G92C C93U C114A | ≤ -4.2
A64C C69G C103G U139G | ≤ -4.2
G59C A91C A119G | ≤ -4.2
A64C G81A G84A | ≤ -4.2
G59C C95A C99G | ≤ -4.2
A60U C85A U101A A119G U127C | ≤ -4.2
G59U C75U C87U C93U U127G U148A | ≤ -4.2
G59C G94C G128A C132A G133C | ≤ -4.2
G59U G124C U134G U146A | -3.17
G59U G84U | -2.72
A60G U77G C87U C132G | ≤ -4.2
